{
  "source": "paper PMC10419975",
  "about": "“A Novel Betulinic Acid Analogue: Synthesis, Solubility, Antitumor Activity and Pharmacokinetic Study in Rats” (Molecules, 2023)",
  "assay": "Equilibrium solubility in different solvents (saturation shake-flask, HPLC)",
  "assay_type": "physicochemical",
  "details": "20 °C, thermodynamic from solid",
  "experimental": "The solubility was recorded at 20 °C in the present study. The solubility under equilibrium conditions was determined using the saturation shake-flask method with minor modifications. Briefly, an excess amount of SBE was added slowly to 1 mL of different solvents including methanol, ethanol, ethyl acetate, n-butanol, n-octanol, acetonitrile, petroleum ether as well as water. The mixture was then in crimp-sealed vials and was stirred vigorously at 20 °C for about 48 h. After that, the mixture was left to stand for an additional 24 h to reach equilibration, and then followed by centrifuging at 13,000 rpm for at least 10 min. 50 µL of the supernatant was transferred into a new tube, and evaporated to dryness under a slow nitrogen stream. The residue was then stored at −20 °C for further use or reconstituted in 1 mL of methanol. For the aqueous solution, 500 µL of the supernatant was transferred to the new tube, and the residue was reconstituted in 100 µL of methanol after dryness. After being centrifuged at 13,000 rpm for 10 min, a 20 μL aliquot was injected into the HPLC systems.",
  "data": [
    {"smiles": "C=C(C)[C@@H]1CC[C@]2(COC(=O)CCC(=O)O)CC[C@]3(C)C(CCC4[C@@]5(C)CC[C@H](O)C(C)(C)C5CC[C@]43C)C12", "note": "(stereo partly shown) [SBE, 28-O-succinyl betulin]", "values": [
      {"measurement": "solubility thermodynamic at 48 h", "setting": "acetonitrile, organic solvent or mixture", "value": "1770 ± 270", "unit": "µg/mL"},
      {"measurement": "solubility thermodynamic at 48 h", "setting": "ethanol, organic solvent or mixture", "value": "3890 ± 110", "unit": "µg/mL"},
      {"measurement": "solubility thermodynamic at 48 h", "setting": "ethyl acetate, organic solvent or mixture", "value": "3350 ± 470", "unit": "µg/mL"},
      {"measurement": "solubility thermodynamic at 48 h", "setting": "n-butanol, organic solvent or mixture", "value": "7190 ± 660", "unit": "µg/mL"},
      {"measurement": "solubility thermodynamic at 48 h", "setting": "n-octanol, organic solvent or mixture", "value": "4420 ± 170", "unit": "µg/mL"},
      {"measurement": "solubility thermodynamic at 48 h", "setting": "petroleum ether, organic solvent or mixture", "value": "36 ± 10", "unit": "µg/mL"},
      {"measurement": "solubility thermodynamic at 48 h", "setting": "water", "value": "200 ± 40", "unit": "µg/mL"}
    ]}
  ]
}
